Source: PubChem BioAssay AID624417 (National Center for Advancing Translational Sciences (NCATS), 2012)
About 6,400 (1.6%) of roughly 410,000 compounds were called active. Inconclusive means that the source gave no clear call. Such entries were picked first, then a sample of the others. Calls follow the shape of the dose curve; as a rule, active = well fitted inhibition curve with a large enough effect; inconclusive = small, poorly fitted or top-dose-only effect; inactive = no such curve, though single readings can be large or run the other way. Potencies of inconclusive entries are left out as doubtful fits.

What follows are compounds tested against Glucagon-like peptide 1 receptor (Homo sapiens) (UniProt P43220) (assay: qHTS of GLP-1 Receptor Inverse Agonists (Inhibition Mode)). Conditions: HEK293 GLP-1R CRE-luciferase, luminescence, 24 h, GLP-1R form is constitutively active; series mostly up to 38.3 µM.
How it was run: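 Readout was luciferase luminescence, measured 12 min after detection reagent at room temperature. Beforehand, GLP-1R reporter HEK293 cells had sat 12 h, then received compounds for 24 hr at 37 deg C.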
Also: nearly all actives have a fitted effect of over 55% in size.
Potency is read from the fitted curve at half-maximal effect; tags tell the direction and shape of the fitted curve.

UniProt P43220, sequence (P43220 whole entry, looked up): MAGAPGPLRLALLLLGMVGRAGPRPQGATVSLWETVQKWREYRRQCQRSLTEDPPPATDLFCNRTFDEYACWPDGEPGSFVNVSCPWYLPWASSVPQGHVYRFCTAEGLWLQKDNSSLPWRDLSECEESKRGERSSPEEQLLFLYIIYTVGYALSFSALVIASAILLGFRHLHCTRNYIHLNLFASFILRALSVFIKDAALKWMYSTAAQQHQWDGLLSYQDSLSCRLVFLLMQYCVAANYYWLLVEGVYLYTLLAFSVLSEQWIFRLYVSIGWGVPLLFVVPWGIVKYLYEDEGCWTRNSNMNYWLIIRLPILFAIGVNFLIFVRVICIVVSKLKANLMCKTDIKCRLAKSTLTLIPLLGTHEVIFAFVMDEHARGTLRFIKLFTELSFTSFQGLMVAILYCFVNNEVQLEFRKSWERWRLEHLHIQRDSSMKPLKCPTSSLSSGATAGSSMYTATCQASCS

Row | Structure (SMILES) | Potency
1 | COc1ccc(OC)c(CN2CCN(C(=O)c3cccc(S(=O)(=O)N(C)c4ccccc4)c3)CC2)c1 | inconclusive [inhibitor, single point]
2 | O=C(CSc1nc2ccccc2c(=O)n1-c1ccc(Cl)cc1)N/N=C/C=C/c1ccccc1[N+](=O)[O-] | inconclusive [inhibitor, partial curve, poor fit]
3 | O=C(Cn1cnc2ccccc2c1=O)Nc1cccc(-c2nnc3n2CCCCC3)c1 | inactive
4 | Cc1ccc(S(=O)(=O)N2CC3C(=O)C[C@@H](c4ccccc4)N(S(=O)(=O)c4ccccc4Cl)C3CC2c2ccccc2)cc1 (stereo partly drawn) | inconclusive [inhibitor, partial curve, poor fit]
5 | CC1Cc2ccccc2N1C(=S)NC1CCCC1 (stereo not drawn) | inconclusive [inhibitor, partial curve]
6 | N#CCCN1CCN(C(=S)c2ccc(-c3cccc(Cl)c3)o2)CC1 | inconclusive [inhibitor, single point]
7 | NCC(c1ccccc1)(c1ccccc1)c1ccccc1 | inconclusive [inhibitor, single point]
8 | COc1ccccc1-c1nn(-c2ccccc2)cc1C(=O)NCC(c1ccco1)N1CCCC1 (stereo not drawn) | inconclusive [inhibitor, partial curve, poor fit]
9 | NC(=O)c1cc(Br)cc(C2CCCCC2)c1O | inconclusive [inhibitor, partial curve]
10 | COc1cccc(C2c3c(C)nn(-c4ccc([N+](=O)[O-])cc4)c3N=C3C(=O)Nc4ccccc4N32)c1 (stereo not drawn) | inconclusive [inhibitor, full curve]
11 | Cc1cc(C)c(S(=O)(=O)N2CCN(C(=O)c3cc4ccccc4o3)CC2)c(C)c1 | inconclusive [inhibitor, partial curve, poor fit]
12 | CCOc1ccc(N2CC(c3nc4ccccc4n3CCCCOc3ccc(OC)cc3)CC2=O)cc1 (stereo not drawn) | inconclusive [inhibitor, partial curve, poor fit]
13 | COc1ccc(C2=C(C)C(=O)N(Cc3ccc(C(=O)NC(C)c4ccccc4)cc3)S2(=O)=O)cc1 (stereo not drawn) | inactive
14 | N#Cc1c(NCc2ccccc2)ccnc1Cl | inconclusive [inhibitor, single point]
15 | CCC(=O)N1CCN(c2ccc(NC(=O)c3cc4ccccc4o3)cc2)CC1 | inconclusive [inhibitor, single point]
16 | CCc1ccccc1Nc1ncnc2ccccc12 | inactive
17 | CCOC(=O)CSc1cc(CS(=O)c2ccc(Cl)cc2)nc(-c2ccccc2)n1 (stereo not drawn) | inconclusive [inhibitor, single point]
18 | CCNC(=S)NNc1nncc2ccccc12 | inconclusive [inhibitor, single point]
19 | O=C(Nc1ccc2ccccc2c1)C(c1ccccc1F)n1c(=O)c(-c2cc3ccccc3[nH]2)nc2ccccc21 (stereo not drawn) | inconclusive [inhibitor, partial curve]
20 | COc1ccc(NC(=O)COc2ccc(N(C)S(=O)(=O)c3ccc(Cl)cc3)cc2)cc1OC | inconclusive [inhibitor, single point]

Row | Structure (SMILES) | Potency
21 | O=C(O)CSc1cc(C(=O)c2ccccc2O)cn2c(=O)c3c(-c4ccccc4)csc3nc12 | inconclusive [inhibitor, full curve, poor fit]
22 | Cc1ccc(CS(=O)Cc2ccc(C(=O)NCc3ccc4c(c3)OCO4)o2)cc1 (stereo not drawn) | inconclusive [inhibitor, partial curve, poor fit]
23 | Cc1ccc(S(=O)(=O)N(CC(=O)N/N=C/c2ccco2)c2cc(Cl)cc(Cl)c2)cc1 | active: 6.31 µM
24 | CCOc1ccc(CN2CCN(Cc3ccc4cc(F)ccc4n3)CC2CCO)cc1 (stereo not drawn) | inconclusive [inhibitor, partial curve, poor fit]
25 | CN=c1scc(-c2ccco2)n1/N=C/c1ccc(O)c(O)c1 | inactive
26 | CCN(CC)S(=O)(=O)c1cccc(C(=O)Nc2ccc3c(c2)OCO3)c1 | inconclusive [inhibitor, single point]
27 | CC(C)c1nc(Cl)c(C#N)c2c1CSC(C)(C)C2 | inconclusive [inhibitor, single point]
28 | CCc1ccc2[nH]c(=O)c(CN(CCN(CC)CC)C(=S)NCc3ccco3)cc2c1 | inconclusive [inhibitor, partial curve, poor fit]
29 | O=S(Cc1ccc(Br)cc1)Cc1nnc(SCc2c(Cl)cccc2Cl)n1-c1ccccc1 (stereo not drawn) | inconclusive [inhibitor, partial curve, poor fit]
30 | CCc1nc2c(OCC3CCCCC3)cccn2c1N(C)C(=O)c1ccc(OC)cc1 | inconclusive [inhibitor, partial curve, poor fit]
31 | CCn1c(=O)c2cc(C(=O)NCCCN3CCN(c4ccc(F)cc4)CC3)sc2c2ccccc21 | inactive
32 | CC(=O)CCS(=O)(=O)c1ccc(NC(C)=O)cc1 | inactive
33 | S=C(NCc1ccccc1)N1CCN(C(=S)NCc2ccccc2)CC1 | inconclusive [inhibitor, single point]
34 | COc1ccc(CCNC(=O)CN2C(=O)NC(c3ccccc3)(c3ccccc3)C2=O)cc1 | inconclusive [inhibitor, partial curve, poor fit]
35 | CC(=O)NCCn1c(SCc2ccc(C)cc2C)nc2ccccc2c1=O | inconclusive [inhibitor, single point]
36 | O=C(Nc1ccc2c(c1)OCO2)C1Cc2c(-c3ccc(Cl)cc3)ccnc2O1 (stereo not drawn) | inconclusive [inhibitor, partial curve, poor fit]
37 | COc1ccc(Cl)cc1C(=O)Nc1ccc2nc(Nc3cccc(Cl)c3)cc(C)c2c1 | inconclusive [inhibitor, partial curve, poor fit]
38 | CCCCCOc1ccc(C(=O)CCC(=O)NC(C)c2ccc(S(N)(=O)=O)cc2)cc1 (stereo not drawn) | inconclusive [inhibitor, single point]
39 | Clc1cccc(Cl)c1/C=C/c1ccn[nH]1 | inconclusive [inhibitor, partial curve, poor fit]
40 | CCCc1ccc(S(=O)(=O)N2CCC(c3nnc(-c4cccc(C)c4)o3)CC2)cc1 | inconclusive [inhibitor, partial curve, poor fit]

Row | Structure (SMILES) | Potency
41 | O=C1NN=C(c2ccccc2)CC1c1c[nH]c2ccccc12 (stereo not drawn) | inconclusive [inhibitor, single point]
42 | CN(CC1CCCO1)S(=O)(=O)c1ccc(C(=O)Nc2nc(-c3ccccn3)cs2)cc1 (stereo not drawn) | inconclusive [inhibitor, single point]
43 | N#Cc1cccc(C#N)c1Oc1ccc(S(=O)(=O)Nc2ccc(Cl)cc2)cc1 | inconclusive [inhibitor, partial curve, poor fit]
44 | COc1ccc(C=O)cc1OS(=O)(=O)c1ccc(NC(C)=O)cc1 | inactive
45 | Cc1sc(NC(=O)/C=C/c2ccc3c(c2)OCO3)nc1-c1ccccc1 | inconclusive [inhibitor, partial curve, poor fit]
46 | O=C(COC(=O)c1c2c(nc3ccccc13)/C(=C/c1cccc([N+](=O)[O-])c1)CCC2)NC1CCS(=O)(=O)C1 (stereo not drawn) | inconclusive [inhibitor, partial curve, poor fit]
47 | CC[C@]12c3[nH]c4cc(-c5ccco5)ccc4c3CCN1C(=O)[C@@H](CC(=O)NCC13CC4CC(CC(C4)C1)C3)C[C@@H]2C(=O)N1CCN(C(=O)C2CC2)CC1 | inconclusive [inhibitor, single point]
48 | COc1cc(OC)c(NC(=O)c2c(N3CCCC3=O)c3cc(C)ccc3n2C)cc1Cl | inactive
49 | COC(=O)c1ccc(N2CCN(C)CC2)c(NC(=O)COc2ccc(OC)cc2)c1 | inconclusive [inhibitor, partial curve, poor fit]
50 | CC(Sc1ccc(Cl)cc1)C(=O)Nc1ccc2c(c1)OCO2 (stereo not drawn) | inconclusive [inhibitor, single point]
51 | C=CCn1c(C)cc(C(=O)COC(=O)c2ccc3c(c2)NC(=O)CS3)c1C | inconclusive [inhibitor, single point]
52 | CC1(C)[C@H]2CC=C(CN3CCC(N4CCC(C(=O)N5CCCC5)CC4)CC3)[C@@H]1C2 | inconclusive [inhibitor, single point]
53 | NC(=S)Cc1nc(-c2ccc(Cl)cc2)cs1 | inconclusive [inhibitor, single point]
54 | CC(=O)Nc1cc(-c2cccc(F)c2)cn2c(-c3ccc(F)c(Cl)c3)cnc12 | inconclusive [inhibitor, single point]
55 | CS(=O)(=O)N(CC(=O)Nc1ccc(Br)cc1F)C1CCCCC1 | inconclusive [inhibitor, partial curve, poor fit]
56 | CCc1cc(C(=O)c2ccc(Br)cc2)c(NC(=O)CN(CC)CC)s1 | inconclusive [inhibitor, partial curve, poor fit]
57 | CC(OC(=O)Cc1ccc(F)cc1)C(=O)N1CCc2ccccc21 (stereo not drawn) | inconclusive [inhibitor, single point]
58 | CN(CC(=O)Nc1cccc(S(=O)(=O)NC2=NCCCCC2)c1)Cc1ccc(C(C)(C)C)cc1 | inconclusive [inhibitor, partial curve, poor fit]
